These are yes or no findings as the source states them, for the method shown. In cells and extracts the contact can be indirect. Some binding calls cover weakened binding; strength is not graded here. For part of these data: Sequences can lack the tags named with a protein.

Amino acid sequences for entries named in this document (tags omitted). A change or cut given only in a name is not applied to a line headed by its entry. Chains listed by the source or under a name are the forms on record and can include a tag or linker.
UniProt Q9NTX7: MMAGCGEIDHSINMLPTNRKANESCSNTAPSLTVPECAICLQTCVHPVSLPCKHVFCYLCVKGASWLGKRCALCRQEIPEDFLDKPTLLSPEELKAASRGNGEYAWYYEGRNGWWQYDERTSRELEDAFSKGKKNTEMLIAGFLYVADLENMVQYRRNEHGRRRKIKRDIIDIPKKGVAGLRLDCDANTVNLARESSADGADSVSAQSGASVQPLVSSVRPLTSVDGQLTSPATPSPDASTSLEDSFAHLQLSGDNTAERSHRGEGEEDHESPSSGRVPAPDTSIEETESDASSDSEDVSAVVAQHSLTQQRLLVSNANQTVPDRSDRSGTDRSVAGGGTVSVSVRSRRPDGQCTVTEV
Flag-tagged TRIP12 (pcDNA3.1-Flag-TRIP12-WT) (Q14669, form named): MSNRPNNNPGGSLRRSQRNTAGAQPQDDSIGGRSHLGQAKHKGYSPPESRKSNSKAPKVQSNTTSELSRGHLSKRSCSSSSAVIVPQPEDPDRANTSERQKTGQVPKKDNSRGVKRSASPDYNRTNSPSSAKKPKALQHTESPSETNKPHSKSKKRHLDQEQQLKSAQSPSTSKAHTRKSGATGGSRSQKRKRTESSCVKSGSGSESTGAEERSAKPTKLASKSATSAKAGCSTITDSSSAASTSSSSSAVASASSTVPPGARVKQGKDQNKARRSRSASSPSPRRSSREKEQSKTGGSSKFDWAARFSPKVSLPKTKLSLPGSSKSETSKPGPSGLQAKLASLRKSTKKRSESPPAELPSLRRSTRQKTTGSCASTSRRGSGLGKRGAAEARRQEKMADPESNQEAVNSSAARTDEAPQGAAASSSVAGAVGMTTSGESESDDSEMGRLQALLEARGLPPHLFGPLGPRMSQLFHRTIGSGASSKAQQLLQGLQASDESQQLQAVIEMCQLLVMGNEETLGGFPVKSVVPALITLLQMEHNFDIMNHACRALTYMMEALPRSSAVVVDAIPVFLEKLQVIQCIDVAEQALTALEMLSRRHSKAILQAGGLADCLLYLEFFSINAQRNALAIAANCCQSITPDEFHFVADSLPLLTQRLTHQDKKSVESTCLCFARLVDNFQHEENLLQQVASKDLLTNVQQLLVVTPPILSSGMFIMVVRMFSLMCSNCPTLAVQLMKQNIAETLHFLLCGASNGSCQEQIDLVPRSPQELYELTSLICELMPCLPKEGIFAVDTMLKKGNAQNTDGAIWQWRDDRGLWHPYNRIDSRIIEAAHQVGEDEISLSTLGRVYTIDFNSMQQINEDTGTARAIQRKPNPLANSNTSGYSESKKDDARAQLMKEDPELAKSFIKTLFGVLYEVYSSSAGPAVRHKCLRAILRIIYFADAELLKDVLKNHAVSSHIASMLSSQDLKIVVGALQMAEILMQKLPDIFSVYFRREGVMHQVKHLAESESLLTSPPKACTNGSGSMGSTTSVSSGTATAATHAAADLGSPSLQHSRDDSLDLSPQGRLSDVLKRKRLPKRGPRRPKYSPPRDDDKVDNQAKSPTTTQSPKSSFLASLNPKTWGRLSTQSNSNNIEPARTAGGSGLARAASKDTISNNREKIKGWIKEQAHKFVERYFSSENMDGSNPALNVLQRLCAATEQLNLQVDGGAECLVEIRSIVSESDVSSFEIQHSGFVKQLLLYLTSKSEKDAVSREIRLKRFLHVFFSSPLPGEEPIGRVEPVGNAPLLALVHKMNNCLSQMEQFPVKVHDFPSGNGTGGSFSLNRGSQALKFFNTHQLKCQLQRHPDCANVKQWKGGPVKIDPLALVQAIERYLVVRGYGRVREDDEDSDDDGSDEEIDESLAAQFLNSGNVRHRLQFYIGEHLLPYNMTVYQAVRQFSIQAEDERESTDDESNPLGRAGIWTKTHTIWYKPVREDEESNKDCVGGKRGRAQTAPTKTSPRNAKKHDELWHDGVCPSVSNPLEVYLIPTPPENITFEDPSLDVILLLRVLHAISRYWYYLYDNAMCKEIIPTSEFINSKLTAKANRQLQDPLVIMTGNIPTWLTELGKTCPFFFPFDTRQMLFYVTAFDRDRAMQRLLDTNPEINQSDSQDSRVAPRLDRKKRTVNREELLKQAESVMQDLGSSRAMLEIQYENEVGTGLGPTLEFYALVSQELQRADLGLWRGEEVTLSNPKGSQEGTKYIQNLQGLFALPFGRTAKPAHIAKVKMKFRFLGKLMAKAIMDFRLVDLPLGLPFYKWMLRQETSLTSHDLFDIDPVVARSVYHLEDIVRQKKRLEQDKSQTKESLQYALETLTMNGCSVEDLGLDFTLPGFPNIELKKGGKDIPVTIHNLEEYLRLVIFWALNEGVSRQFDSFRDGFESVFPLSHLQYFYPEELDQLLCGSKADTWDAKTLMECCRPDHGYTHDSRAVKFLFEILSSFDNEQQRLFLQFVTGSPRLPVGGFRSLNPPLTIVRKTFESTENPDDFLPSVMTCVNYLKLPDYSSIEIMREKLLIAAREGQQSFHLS
UniProt O95271: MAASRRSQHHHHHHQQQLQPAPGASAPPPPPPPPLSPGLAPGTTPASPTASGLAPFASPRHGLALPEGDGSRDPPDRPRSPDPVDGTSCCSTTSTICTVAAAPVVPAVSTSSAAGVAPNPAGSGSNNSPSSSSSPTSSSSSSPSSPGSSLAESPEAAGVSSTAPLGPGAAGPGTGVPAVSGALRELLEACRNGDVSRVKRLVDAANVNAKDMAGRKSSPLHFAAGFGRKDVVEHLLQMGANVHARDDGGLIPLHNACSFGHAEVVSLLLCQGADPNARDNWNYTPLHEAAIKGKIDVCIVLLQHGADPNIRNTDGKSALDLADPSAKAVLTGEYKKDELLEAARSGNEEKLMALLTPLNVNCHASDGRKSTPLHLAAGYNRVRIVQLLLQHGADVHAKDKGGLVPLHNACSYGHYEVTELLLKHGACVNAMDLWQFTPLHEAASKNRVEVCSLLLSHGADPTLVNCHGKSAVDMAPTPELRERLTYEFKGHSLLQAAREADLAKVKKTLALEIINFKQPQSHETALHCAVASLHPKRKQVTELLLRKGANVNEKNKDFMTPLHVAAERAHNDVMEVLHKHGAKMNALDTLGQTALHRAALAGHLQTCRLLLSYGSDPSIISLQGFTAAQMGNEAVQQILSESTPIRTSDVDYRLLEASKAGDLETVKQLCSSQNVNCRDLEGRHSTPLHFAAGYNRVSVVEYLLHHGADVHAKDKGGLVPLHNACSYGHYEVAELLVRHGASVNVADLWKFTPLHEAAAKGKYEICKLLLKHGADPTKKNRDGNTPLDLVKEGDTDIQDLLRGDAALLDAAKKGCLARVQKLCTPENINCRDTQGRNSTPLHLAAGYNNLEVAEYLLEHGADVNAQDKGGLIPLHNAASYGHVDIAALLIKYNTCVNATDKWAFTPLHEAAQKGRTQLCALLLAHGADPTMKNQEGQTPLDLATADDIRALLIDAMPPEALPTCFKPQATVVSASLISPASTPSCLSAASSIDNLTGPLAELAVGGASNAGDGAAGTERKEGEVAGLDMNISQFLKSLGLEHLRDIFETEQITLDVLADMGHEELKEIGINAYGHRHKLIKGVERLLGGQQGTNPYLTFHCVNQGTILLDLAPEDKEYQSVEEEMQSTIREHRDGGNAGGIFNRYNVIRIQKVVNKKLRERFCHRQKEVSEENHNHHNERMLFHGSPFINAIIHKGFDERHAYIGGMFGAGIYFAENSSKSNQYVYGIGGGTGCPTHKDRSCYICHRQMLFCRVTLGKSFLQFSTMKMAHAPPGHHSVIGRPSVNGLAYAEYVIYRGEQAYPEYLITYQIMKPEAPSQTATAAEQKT

Common to all, as to assay: co-IP; TNKS1/2 DKO HEK293T cells cotransfected with TNKS1 (or MycSAMPARP) and Flag plasmids; TNE lysate; anti-Flag beads 2 h at 4 °C; immunoblot
In test [1] the target is Flag-epitope-tagged RNF166 (FlagRNF166) (UniProt Q96A37).
Another test addresses T1, Flag-tagged DTX2 (UniProt Q86UW9).
T1 sequence: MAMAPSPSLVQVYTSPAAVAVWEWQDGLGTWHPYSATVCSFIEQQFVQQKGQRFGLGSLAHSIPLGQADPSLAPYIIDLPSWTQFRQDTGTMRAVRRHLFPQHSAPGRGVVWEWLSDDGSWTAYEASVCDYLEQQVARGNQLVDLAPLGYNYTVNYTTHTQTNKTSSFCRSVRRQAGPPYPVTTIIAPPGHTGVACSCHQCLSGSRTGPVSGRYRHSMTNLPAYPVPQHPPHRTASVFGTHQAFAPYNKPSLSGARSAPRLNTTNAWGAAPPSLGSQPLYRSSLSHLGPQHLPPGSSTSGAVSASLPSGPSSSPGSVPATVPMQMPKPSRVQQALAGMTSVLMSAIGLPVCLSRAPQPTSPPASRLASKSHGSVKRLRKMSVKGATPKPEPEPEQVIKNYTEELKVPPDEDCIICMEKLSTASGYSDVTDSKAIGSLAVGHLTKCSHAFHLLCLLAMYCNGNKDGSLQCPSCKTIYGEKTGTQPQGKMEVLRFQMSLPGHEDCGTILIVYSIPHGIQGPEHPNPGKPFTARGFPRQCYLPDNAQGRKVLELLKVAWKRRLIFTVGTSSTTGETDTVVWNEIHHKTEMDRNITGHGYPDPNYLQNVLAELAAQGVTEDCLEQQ

In a further test the target is T2, Flag-tagged DTX4 (UniProt Q9Y2E6).
T2 sequence: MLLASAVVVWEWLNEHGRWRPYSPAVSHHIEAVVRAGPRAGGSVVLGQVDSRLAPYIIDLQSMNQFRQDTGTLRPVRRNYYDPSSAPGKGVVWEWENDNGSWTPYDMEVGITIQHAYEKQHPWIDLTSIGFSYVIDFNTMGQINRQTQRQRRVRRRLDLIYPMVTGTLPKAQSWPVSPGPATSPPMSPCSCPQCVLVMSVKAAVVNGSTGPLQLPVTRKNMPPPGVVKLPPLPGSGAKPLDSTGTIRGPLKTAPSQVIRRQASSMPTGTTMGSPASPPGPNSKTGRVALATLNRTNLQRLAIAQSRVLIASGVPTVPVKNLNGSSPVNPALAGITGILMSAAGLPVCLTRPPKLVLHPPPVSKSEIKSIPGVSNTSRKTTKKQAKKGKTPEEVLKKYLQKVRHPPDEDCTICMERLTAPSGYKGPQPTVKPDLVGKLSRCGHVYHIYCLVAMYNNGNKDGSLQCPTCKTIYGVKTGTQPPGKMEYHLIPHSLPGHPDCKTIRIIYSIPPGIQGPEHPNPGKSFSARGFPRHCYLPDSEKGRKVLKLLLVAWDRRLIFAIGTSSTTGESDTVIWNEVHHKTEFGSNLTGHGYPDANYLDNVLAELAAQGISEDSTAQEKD

The target in another test is T3, Flag-tagged RNF138 (UniProt Q8WVD3).
T3 sequence: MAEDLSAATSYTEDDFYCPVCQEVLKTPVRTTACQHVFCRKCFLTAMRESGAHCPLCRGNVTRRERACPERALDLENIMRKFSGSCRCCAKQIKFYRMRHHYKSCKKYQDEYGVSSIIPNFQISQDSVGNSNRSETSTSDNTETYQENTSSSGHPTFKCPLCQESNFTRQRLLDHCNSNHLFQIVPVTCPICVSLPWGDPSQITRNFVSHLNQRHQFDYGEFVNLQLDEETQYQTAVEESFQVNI

Test [2] addresses Flag-tagged RNF146 (FlagRNF146) (UniProt Q9NTX7).
For test [3], the target named is Flag-tagged TRIP12 (pcDNA3.1-Flag-TRIP12-WT) (UniProt Q14669).
Test [4] deals with FlagBAP (bacterial alkaline phosphatase) [phosphatase: P00634].
Test [5] addresses FlagRNF166 C2HC mutant (C98G; C*) (UniProt Q96A37).
The target in test [6] is FlagRNF166 Di19 mutant D2* (C182G) (UniProt Q96A37).
The target in test [7] is FlagRNF166 RING mutant (C33S/C36S; R**) (UniProt Q96A37).
Test [8] concerns the target FlagRNF166 UIM deletion (UIMΔ; UΔ) (UniProt Q96A37).
The next test concerns the target tagged HUWE1 (FlagHUWE1) (UniProt Q7Z6Z7).

Consider “TNKS1 (transfected, TNKS.WT) (from UniProt O95271 1-1327) (enzyme)”, for which the binding result in [1] is reported as “binds”; with Flag-tagged DTX2, “binds”; in the test with Flag-tagged DTX4, “binds”; with Flag-tagged RNF138, “binds”; in test [2] it was “binds”; in test [3], “no binding”. Moreover, the binding result in test [4] is reported as “no binding”; in test [5], “binds”; in test [6], “no binding”; in [7], “binds”; in test [8] it was “binds”; with tagged HUWE1 (FlagHUWE1) it was “binds”.

Source of the values: publication PMC10632493.
